This passage reports binding signal results from publication PMC5700166.

Only a part is listed here, and it is no random draw. The list includes weakly bound sequences.

What all share (assay): protein-binding microarray (PBM)
What all share (conditions): PBM: ~300 nM protein, 6 mM HEPES pH 7.8, 80 mM KCl, 0.5 mM EDTA, 0.5 mM EGTA, 6% glycerol, 35 ng/ul poly-dIdC, 1% milk, 1 h, room temperature; Ap Aiptasia and Nv Nematostella (sea anemones) / Co Capsaspora / Aq Amphimedon (sponge) / Dm Drosophila / Hu human; RHD is the Rel homology domain; high values mean tight binding; most listed sequences are background and not binding sites; double strand, one strand shown

One experiment addresses T1, GST-Ap-NF-kB RHD (UniProt A0A913YAJ5).
T1 sequence: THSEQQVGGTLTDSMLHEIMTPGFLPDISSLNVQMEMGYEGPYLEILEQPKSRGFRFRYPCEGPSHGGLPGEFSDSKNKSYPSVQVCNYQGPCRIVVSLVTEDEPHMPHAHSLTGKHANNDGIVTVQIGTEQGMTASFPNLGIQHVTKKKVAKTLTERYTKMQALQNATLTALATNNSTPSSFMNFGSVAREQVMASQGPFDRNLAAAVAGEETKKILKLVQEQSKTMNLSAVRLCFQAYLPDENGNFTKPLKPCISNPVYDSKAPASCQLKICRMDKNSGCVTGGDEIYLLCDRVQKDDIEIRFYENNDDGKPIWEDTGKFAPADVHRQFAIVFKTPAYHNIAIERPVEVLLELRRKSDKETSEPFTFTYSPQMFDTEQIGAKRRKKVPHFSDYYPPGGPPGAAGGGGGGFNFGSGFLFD

The target in experiment [1] is T2, GST-Nv-NF-kB (Cys allele) (UniProt E5G601).
T2 sequence: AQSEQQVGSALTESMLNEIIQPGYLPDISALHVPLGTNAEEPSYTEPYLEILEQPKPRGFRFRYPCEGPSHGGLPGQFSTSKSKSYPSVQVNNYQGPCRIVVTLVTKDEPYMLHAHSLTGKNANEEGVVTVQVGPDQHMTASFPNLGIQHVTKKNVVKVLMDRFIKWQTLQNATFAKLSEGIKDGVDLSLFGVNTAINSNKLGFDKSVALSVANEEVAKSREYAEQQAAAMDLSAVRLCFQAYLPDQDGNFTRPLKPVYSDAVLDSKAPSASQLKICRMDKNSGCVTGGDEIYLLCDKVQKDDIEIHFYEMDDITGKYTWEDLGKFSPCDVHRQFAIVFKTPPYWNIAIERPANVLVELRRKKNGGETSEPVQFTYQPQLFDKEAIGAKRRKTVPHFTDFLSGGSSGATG

The next experiment deals with T3, GST-Co-NF-kB (UniProt F1ARL5).
T3 sequence: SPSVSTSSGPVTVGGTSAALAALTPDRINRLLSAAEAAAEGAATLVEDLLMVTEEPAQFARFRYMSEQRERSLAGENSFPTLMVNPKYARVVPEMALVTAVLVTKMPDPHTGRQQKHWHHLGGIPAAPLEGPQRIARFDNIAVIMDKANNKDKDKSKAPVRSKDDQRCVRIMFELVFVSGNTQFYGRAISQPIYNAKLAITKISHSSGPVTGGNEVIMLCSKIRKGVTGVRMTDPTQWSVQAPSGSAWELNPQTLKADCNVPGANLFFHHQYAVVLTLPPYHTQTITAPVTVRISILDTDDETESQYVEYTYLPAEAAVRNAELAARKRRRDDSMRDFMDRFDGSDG

In a further experiment the target is T4, GST-Dm-Relish (UniProt Q94527).
T4 sequence: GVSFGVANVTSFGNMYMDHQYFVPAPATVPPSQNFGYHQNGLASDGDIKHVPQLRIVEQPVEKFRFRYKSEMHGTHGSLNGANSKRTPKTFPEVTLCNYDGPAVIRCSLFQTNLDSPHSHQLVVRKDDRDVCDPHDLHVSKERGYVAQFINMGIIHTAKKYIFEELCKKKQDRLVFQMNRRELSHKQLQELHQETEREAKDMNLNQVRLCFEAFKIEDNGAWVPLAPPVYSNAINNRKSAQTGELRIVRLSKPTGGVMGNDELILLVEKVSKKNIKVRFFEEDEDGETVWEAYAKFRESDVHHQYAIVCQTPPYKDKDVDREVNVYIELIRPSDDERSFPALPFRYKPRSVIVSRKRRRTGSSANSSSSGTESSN

The next experiment deals with T5, GST-Aq-NF-kB (UniProt A9Y5G7).
T5 sequence: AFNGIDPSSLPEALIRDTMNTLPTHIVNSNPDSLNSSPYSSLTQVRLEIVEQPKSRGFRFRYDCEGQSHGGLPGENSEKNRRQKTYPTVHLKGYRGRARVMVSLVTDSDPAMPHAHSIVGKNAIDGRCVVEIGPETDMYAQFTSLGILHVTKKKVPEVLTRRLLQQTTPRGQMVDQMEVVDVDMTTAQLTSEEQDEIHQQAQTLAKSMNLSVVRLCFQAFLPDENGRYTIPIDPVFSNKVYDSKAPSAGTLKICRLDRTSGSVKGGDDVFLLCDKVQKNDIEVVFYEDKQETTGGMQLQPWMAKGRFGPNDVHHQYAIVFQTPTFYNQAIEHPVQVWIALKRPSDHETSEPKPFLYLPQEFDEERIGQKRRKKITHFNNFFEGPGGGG

Take “CCGATTAACATCAAGTTGTAACCTGATGTTAATCGGGTCTTGATTCGCTTGACGCTGCTG”: the binding signal with GST-Ap-NF-kB RHD was -1.14 z-score; in experiment [1] it was -0.504 z-score; with GST-Co-NF-kB it was -0.829 z-score; with GST-Dm-Relish, -0.436 z-score; in the experiment with GST-Aq-NF-kB, -0.686 z-score.
For “CCGATTAACATCATATGCGTGACTGATGTTAATCGGGTCTTGATTCGCTTGACGCTGCTG” the same measures were -0.169 z-score, -0.567 z-score, -0.853 z-score, -0.342 z-score and -0.154 z-score.
For “CCGATTAACATCAGAAAATCCGCTGATGTTAATCGGGTCTTGATTCGCTTGACGCTGCTG” the same measures were -0.00769 z-score, 0.298 z-score, 0.411 z-score, 0.495 z-score and 0.591 z-score.
In the case of “CCGATTAACATCAATGGAAATTCTGATGTTAATCGGGTCTTGATTCGCTTGACGCTGCTG”, the binding signal was -0.101 z-score with GST-Ap-NF-kB RHD; -0.181 z-score in experiment [1]; -0.0895 z-score with GST-Co-NF-kB; 0.524 z-score with GST-Dm-Relish; 0.71 z-score with GST-Aq-NF-kB.
For “CCGATTAACATCAGCAAATTTCCTGATGTTAATCGGGTCTTGATTCGCTTGACGCTGCTG”, the binding signal with GST-Ap-NF-kB RHD was -0.062 z-score; in experiment [1] it was -0.11 z-score; with GST-Co-NF-kB, 0.215 z-score; in the experiment with GST-Dm-Relish, 0.763 z-score; with GST-Aq-NF-kB it was 0.725 z-score.
As to “CCGATTAACATCAATGAGGTTTCTGATGTTAATCGGGTCTTGATTCGCTTGACGCTGCTG”, the binding signal with GST-Ap-NF-kB RHD is 0.0659 z-score; in experiment [1], -0.322 z-score; with GST-Co-NF-kB it was -0.124 z-score; in the experiment with GST-Dm-Relish it was -0.473 z-score; in the experiment with GST-Aq-NF-kB it was -0.47 z-score.
For “CCGATTAACATCATGTAGGAACCTGATGTTAATCGGGTCTTGATTCGCTTGACGCTGCTG” the same measures were -0.789 z-score, -0.69 z-score, -0.712 z-score, -0.547 z-score and -0.33 z-score.
In the case of “CCGATTAACATCAGAATTTCCAATGATGTTAATCGGGTCTTGATTCGCTTGACGCTGCTG”, the binding signal in the experiment with GST-Ap-NF-kB RHD is -0.195 z-score; in experiment [1], 0.138 z-score; in the experiment with GST-Co-NF-kB, -0.00145 z-score; in the experiment with GST-Dm-Relish it was 0.687 z-score; with GST-Aq-NF-kB, 0.821 z-score.
Take “CCGATTAACATCAAAATTTCCAATGATGTTAATCGGGTCTTGATTCGCTTGACGCTGCTG”: the binding signal with GST-Ap-NF-kB RHD was -0.0902 z-score; in experiment [1] it was -0.265 z-score; in the experiment with GST-Co-NF-kB, -0.264 z-score; with GST-Dm-Relish, 0.542 z-score; with GST-Aq-NF-kB it was 0.714 z-score.
For “CCGATTAACATCAGCGTGAGTTGTGATGTTAATCGGGTCTTGATTCGCTTGACGCTGCTG” the same measures were -0.00214 z-score, -0.303 z-score, 0.194 z-score, 0.128 z-score and -0.0705 z-score.
Regarding “CCGATTAACATCACTGGCTTGAATGATGTTAATCGGGTCTTGATTCGCTTGACGCTGCTG”, the binding signal with GST-Ap-NF-kB RHD was -0.0857 z-score; in experiment [1] it was -0.91 z-score; with GST-Co-NF-kB, 0.0479 z-score; with GST-Dm-Relish it was -0.628 z-score; with GST-Aq-NF-kB, -0.513 z-score.
Turning to “CCGATTAACATCAGAGCCGGCTTTGATGTTAATCGGGTCTTGATTCGCTTGACGCTGCTG”, the binding signal in the experiment with GST-Ap-NF-kB RHD is 0.0528 z-score; in experiment [1] it was 0.147 z-score; with GST-Co-NF-kB, -1.98 z-score; with GST-Dm-Relish, -1.25 z-score; with GST-Aq-NF-kB, -0.286 z-score.
For “CCGATTAACATCACAATGTGTGATGATGTTAATCGGGTCTTGATTCGCTTGACGCTGCTG” the same measures were -0.891 z-score, -0.287 z-score, -0.801 z-score, 0.249 z-score and -0.241 z-score.
